Results on 58 compounds are retold here after the supplement of paper PMC9446081.

The campaign covered roughly 39,000 compounds. About 220 (0.56%) showed activity. The list shows a part of the results.
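Further: static incubation at 37 °C against the wild-type strain, values averaged over two biological replicates.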

In this experiment the test system is Escherichia coli K-12 BW25113. Kind of experiment: relative growth (OD600 normalised to plate interquartile mean) (fraction); higher = less growth inhibition, active = 0.2 or less. The conditions noted are these: 50 µM; LB; incubation time: overnight (16-24 h).
As to `Cc1noc(C)c1NC(=O)Nc1ccc2c(c1)C(=O)N([C@H](C)CO)C[C@H](C)[C@H](CN(C)C(=O)Nc1ccc3c(c1)OCO3)OCCCC[C@H](C)O2`, the relative growth is inactive: 1.01.
As to `CC(C)(C)OC(=O)NCCOCCOCCOc1ccc(N(C(=O)CCl)[C@@H](C(=O)NCCc2ccccc2)c2cccs2)cc1Cl`, the relative growth is inactive: 1.04.
For `O=C(CCCCC(=O)N/N=C/[C@H](O)[C@@H](O)[C@H](O[C@@H]1O[C@H](CO)[C@H](O)[C@H](O)[C@H]1O)[C@H](O)CO)NO`, the relative growth was inactive: 1.
As for `COc1ccc(CN(C)C[C@H]2Oc3ccc(NC(=O)CCCCCC(=O)Nc4ccccc4N)cc3CC(=O)N([C@H](C)CO)C[C@H]2C)cc1`, the relative growth is inactive: 0.96.
The figure for `CC(O)C(N)C(=O)O` (stereo not drawn) is inactive: 1.05; for `O=C(C[C@H]1CC[C@@H](NC(=O)Nc2ccc3c(c2)OCO3)[C@H](CO)O1)NCCCN1CCOCC1` it is inactive: 1.01.
As for `O=C(O)[C@@H]1C[C@@H](O)CN1`, the relative growth is inactive: 1.02.
The result for `COc1cccc(S(=O)(=O)Nc2ccc3c(c2)[C@H]2C[C@H](CC(=O)NCc4cccc(F)c4)O[C@H](CO)[C@H]2O3)c1` reads inactive: 1.02.
The figure for `Cc1ccc(S(=O)(=O)N(C)C[C@@H]2Oc3ccc(NC(=O)CCCN(C)C)cc3C(=O)N([C@@H](C)CO)C[C@@H]2C)cc1` is inactive: 1.01; for `C[C@@H]1CN([C@@H](C)CO)C(=O)c2cccc(NC(=O)c3ccc(-c4nccs4)cc3)c2O[C@H]1CN(C)Cc1ccccc1` it is inactive: 1.01; for `C[C@@H]1CCCCO[C@@H](CN(C)C(=O)c2ccncc2)[C@H](C)CN([C@H](C)CO)C(=O)c2cc(NS(C)(=O)=O)ccc2O1` it is inactive: 0.984.
In the case of `CCC(CC)C(=O)N[C@@H]1CC(=O)N(C)C1`, the relative growth was inactive: 1.02.
`C[C@@H]1CN([C@@H](C)CO)C(=O)c2cccc(NS(=O)(=O)c3cccs3)c2O[C@H]1CN(C)Cc1ccc(Oc2ccccc2)cc1`: the relative growth is inactive: 0.997.
On to `CS(=O)(=O)N1C[C@H]2COC[C@@]2(C(=O)NCc2ccccn2)C1`, for which the relative growth was inactive: 1.
For `C[C@H]1CN([C@@H](C)CO)C(=O)c2cc(C#Cc3ccccc3)cnc2O[C@H]1CN(C)S(=O)(=O)c1ccccc1F`, the relative growth was inactive: 1.04.
Take `CCCC#Cc1ccc2c(c1)O[C@H](CN(C)C(=O)c1cnccn1)[C@@H](C)CN([C@@H](C)CO)S2(=O)=O`: the relative growth is inactive: 1.01.
As for `COCCOC(=O)N1C(=O)[C@@]2(c3cc(C#CCC(C(=O)OC)C(=O)OC)ccc31)[C@H](C(=O)N1CCc3cc(OC)c(OC)cc3C1)[C@H]1C(=O)O[C@H](c3ccccc3)[C@H](c3ccccc3)N1[C@@H]2c1ccccc1OCCO`, the relative growth was inactive: 1.04.
As for `COc1ccc(NC(=O)N(C)C[C@@H]2OCCCC[C@@H](C)Oc3ccc(NC(=O)c4ccncc4)cc3C(=O)N([C@H](C)CO)C[C@H]2C)cc1`, the relative growth is inactive: 0.985.
Regarding `O=C(C[C@H]1CC[C@H](NC(=O)Cc2ccccn2)[C@H](CO)O1)NCCc1ccncc1`, the relative growth was inactive: 1.04.
The figure for `C[C@@H]1CCCCO[C@@H](CN(C)Cc2ccc(Cl)c(Cl)c2)[C@H](C)CN([C@@H](C)CO)C(=O)c2cc(NC(=O)Cc3ccccc3)ccc2O1` is inactive: 0.956; for `CN(C)CC(=O)N[C@@H]1C=C[C@@H](CC(=O)NCCN2CCCCC2)O[C@@H]1CO` it is inactive: 0.983.
For the compound `COC(=O)CCC(C)C1CCC2C3C(O)CC4CC(O)CCC4(C)C3CC(O)C12C` (stereo not drawn), the relative growth is inactive: 1.03.
As to `C[C@H]1CN([C@@H](C)CO)C(=O)Cc2cc(NS(=O)(=O)c3cccs3)ccc2O[C@H]1CN(C)Cc1ccc(Oc2ccccc2)cc1`, the relative growth is inactive: 0.986.
Regarding `C[C@H]1COC(=O)[C@H](Cc2ccc(F)cc2)CCC=CC[C@@H](CC(=O)N[C@H](CO)Cc2ccccc2)C(=O)N1`, the relative growth was inactive: 1.01.
For `O=C(OC1Cc2c(O)cc(O)cc2OC1c1cc(O)c(O)c(O)c1)c1cc(O)c(O)c(O)c1` (stereo not drawn), the relative growth was inactive: 0.801.
With `C[C@@H]1CCCCO[C@@H](CN(C)Cc2ccncc2)[C@@H](C)CN([C@H](C)CO)C(=O)c2cc(NS(=O)(=O)c3ccc(Cl)cc3)ccc2O1`, the relative growth was inactive: 0.993.
The figure for `Cc1noc(C)c1NC(=O)Nc1ccc2c(c1)C(=O)N([C@@H](C)CO)C[C@@H](C)[C@@H](CN(C)Cc1ccc(C(F)(F)F)cc1)OCCCC[C@@H](C)O2` is inactive: 0.972.
As to `CCCN(C)C[C@H]1OCCCC[C@@H](C)Oc2ccc(NC(=O)NC3CCCCC3)cc2C(=O)N([C@@H](C)CO)C[C@H]1C`, the relative growth was inactive: 0.983.
For the compound `C[C@H](CO)N1C[C@H](C)[C@H](CN(C)C(=O)Nc2cccc3ccccc23)Oc2ccc(NS(=O)(=O)c3ccc(F)cc3)cc2CC1=O`, the relative growth was inactive: 0.995.
For the compound `COc1ccc(S(=O)(=O)Nc2ccc3c(c2)C(=O)N([C@H](C)CO)C[C@@H](C)[C@@H](CN(C)Cc2ccc4c(c2)OCO4)OCCCC[C@H](C)O3)cc1`, the relative growth was inactive: 1.02.
As for `C[C@@H]1CN([C@H](C)CO)C(=O)c2cc(C#CC3(O)CCCC3)cnc2O[C@H]1CN(C)S(=O)(=O)c1ccc(F)cc1`, the relative growth is inactive: 0.984.
The result for `C[C@@H]1CN([C@H](C)CO)C(=O)Cc2cc(NS(=O)(=O)c3ccccc3)ccc2O[C@@H]1CN(C)S(=O)(=O)c1ccc(F)cc1` reads inactive: 0.921.
The result for `COc1ccc(CN(C)C[C@H]2OCCCC[C@@H](C)Oc3ccc(NC(=O)Nc4ccccc4)cc3C(=O)N([C@@H](C)CO)C[C@H]2C)cc1` reads inactive: 0.969.
As to `NCC[C@@H]1CC[C@@H](NC(=O)NC2CCCCC2)[C@@H](CO)O1`, the relative growth was inactive: 1.
As for `O=C(C[C@H]1C[C@@H]2c3cc(NS(=O)(=O)c4ccc(F)cc4)ccc3O[C@@H]2[C@H](CO)O1)NC1CCCC1`, the relative growth is inactive: 1.03.
As for `C[C@@H]1CN([C@H](C)CO)C(=O)c2cccc(NC(=O)Nc3cccc4ccccc34)c2O[C@@H]1CN(C)C(=O)Nc1ccc2c(c1)OCO2`, the relative growth is inactive: 0.976.
The result for `C[C@@H]1CCCCO[C@@H](CN(C)C(=O)Nc2cccc3ccccc23)[C@H](C)CN([C@H](C)CO)C(=O)c2cc(NC(=O)Nc3ccc(F)cc3)ccc2O1` reads inactive: 1.01.
Regarding `COC(=O)CC1C(C)(C)C(=O)C2CC3=C4CC(=O)OC(c5ccoc5)C4(C)CCC3C1(C)C2=O` (stereo not drawn), the relative growth is inactive: 1.08.
As for `C[C@@H]1CN([C@@H](C)CO)C(=O)c2cccc(NC(=O)C3CCOCC3)c2O[C@@H]1CN(C)S(=O)(=O)c1cn(C)cn1`, the relative growth is inactive: 1.01.
The figure for `C[C@@H]1CCCCO[C@H](CN(C)C(=O)Cc2ccccc2)[C@H](C)CN([C@H](C)CO)C(=O)c2cc(NS(=O)(=O)c3cccs3)ccc2O1` is inactive: 0.994; for `COC(=O)[C@H]1c2cc3c(c(O)c2[C@@H](O[C@@H]2O[C@H](C)[C@H](OC)[C@](C)(OC)[C@@H]2OC)C[C@@]1(C)O)C(=O)c1c(O)cc2c(c1C3=O)O[C@H]1O[C@@]2(C)[C@@H](O)[C@H](N(C)C)[C@@H]1O` it is inactive: 1.03; for `COc1ccc2c3c(n(c2c1)C)[C@H](CO)N(C[C@]13CCN(CC1)C(=O)c1ccccn1)C(=O)c1ccccn1` it is inactive: 0.97.
For `C[C@@H]1CCCCO[C@H](CN(C)Cc2ccccc2)[C@H](C)CN([C@H](C)CO)C(=O)c2cc(NC(=O)C3CCCCC3)ccc2O1`, the relative growth is inactive: 0.989.
The result for `O=C(C[C@H]1CC[C@H]2[C@@H](COC[C@@H](O)CN2S(=O)(=O)c2ccccc2Cl)O1)NCCc1ccncc1` reads inactive: 0.977; that for `C[C@@H]1CN([C@@H](C)CO)C(=O)c2cccc(NS(=O)(=O)c3cn(C)cn3)c2O[C@@H]1CN(C)Cc1ccc(C(=O)Nc2ccccc2N)cc1`, inactive: 1.02.
For `Cc1ccc(S(=O)(=O)N(C)C[C@@H]2OCCCC[C@H](C)Oc3ccc(NC(=O)NC4CCCCC4)cc3C(=O)N([C@H](C)CO)C[C@H]2C)cc1`, the relative growth was inactive: 1.01.
With `CN(C)C(=O)c1cccc(-c2cccc(-c3nc(C(=O)NCc4ccccc4)cc4c3[C@H](CCO)N([S@@](=O)C(C)(C)C)C4)c2)c1`, the relative growth is inactive: 1.01.
In the case of `C[C@@H]1CCCCO[C@@H](CN(C)S(=O)(=O)c2ccc(Cl)cc2)[C@H](C)CN([C@H](C)CO)C(=O)c2cc(NS(=O)(=O)c3ccccc3)ccc2O1`, the relative growth is inactive: 0.991.
As to `C[C@@H]1ON(c2ccc(C(=O)OC(C)(C)C)cc2)[C@H](c2ccc(Br)cc2)[C@H]1C(=O)N1C(=O)OC[C@H]1Cc1ccccc1`, the relative growth was inactive: 0.971.
With `C[C@@H]1CCCCO[C@H](CN(C)CC2CCCCC2)[C@@H](C)CN([C@H](C)CO)C(=O)c2cc(NC(=O)CCCCCC(=O)Nc3ccccc3N)ccc2O1`, the relative growth is inactive: 0.968.
Turning to `CN1CCOC(c2ccccc2)c2ccccc2C1` (stereo not drawn), the relative growth was inactive: 0.972.
The figure for `COCCN(C)C(=O)c1ccc2nnc([C@H]3CN(S(C)(=O)=O)CCN3C)n2c1` is inactive: 1.01.
The figure for `C[C@H](CO)N1C[C@H](C)[C@@H](CN(C)Cc2ccc(-c3ccccc3)cc2)Oc2ccc(NS(=O)(=O)c3ccc(F)cc3)cc2CC1=O` is inactive: 0.985; for `Cc1noc(C)c1S(=O)(=O)Nc1cccc2c1O[C@H](CN(C)S(C)(=O)=O)[C@H](C)CN([C@H](C)CO)C2=O` it is inactive: 0.978; for `C[C@@H]1CN([C@@H](C)CO)C(=O)c2cc(C#Cc3ccccc3F)cnc2O[C@@H]1CN(C)S(=O)(=O)c1ccccc1` it is inactive: 1.01.
Turning to `NC1(C(=O)O)CC(C(=O)O)C1` (stereo not drawn), the relative growth was inactive: 0.99.
Consider `CNCCC(Oc1ccccc1C)c1ccccc1.Cl` (stereo not drawn), for which the relative growth is inactive: 1.04.
Turning to `O=C(C[C@H]1CC[C@H]2[C@@H](COC[C@@H](O)CN2S(=O)(=O)c2cccc(F)c2)O1)NCc1ccc2c(c1)OCO2`, the relative growth is inactive: 1.01.
